Molecular target: T1, linear (M1-linked) tetraubiquitin (UniProt P0CG48 partial chain; P0CG48 partial chain; P0CG48 partial chain; P0CG48 partial chain)
T1 construct: ubiquitin, first unit of four joined head to tail (M1-linked); ubiquitin, second unit; ubiquitin, third unit; ubiquitin, fourth unit; also called linear tetraubiquitin; linear tetra-ubiquitin; source: E. coli, purified (heat treatment, HiTrap SP, Superdex 200)
Assay: SPR; Biacore X100, CM5 chip; linear tetraubiquitin immobilised by amine coupling (around 500 RU), BSA on the reference cell; OPTN injected at 30 μl/min for 120 s, dissociation 300 s; HBS-EP+ (10 mM Hepes-NaOH pH 7.4, 150 mM NaCl, 0.05% Tween 20, 3 mM EDTA), 25 °C; global fit to a 1:1 interaction model
Conditions: both partners purified

T1 sequence (P0CG48 1-304): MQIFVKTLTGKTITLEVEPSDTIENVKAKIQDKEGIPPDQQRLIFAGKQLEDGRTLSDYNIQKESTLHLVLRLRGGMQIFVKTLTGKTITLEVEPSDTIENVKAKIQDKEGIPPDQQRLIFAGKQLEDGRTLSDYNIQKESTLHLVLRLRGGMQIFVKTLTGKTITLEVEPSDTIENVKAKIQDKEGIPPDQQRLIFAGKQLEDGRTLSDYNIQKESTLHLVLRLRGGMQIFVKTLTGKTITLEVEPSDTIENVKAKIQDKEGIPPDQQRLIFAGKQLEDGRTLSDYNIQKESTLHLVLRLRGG

Kd: 1020 nM
koff: 0.00519 s⁻¹
kon: 5090 M⁻¹ s⁻¹
B1: full-length OPTN-WT protein used as SPR analyte (natural protein)
chain: not shown
notes: optineurin (OPTN), full length; it may be the MBP fusion m11; also called OPTN protein

From PMC4999505, “Linear ubiquitination is involved in the pathogenesis of optineurin-associated amyotrophic lateral sclerosis” (Nature Communications, 2016)
